# Reference: PubChem BioAssay AID1347165 (National Center for Advancing Translational Sciences (NCATS), 2019)
# “And” between values parts separate entries of the source, which are not always exact repeats. Equal entries are not always repeated. Among all 220,000 compounds or so, about 5,700 (2.6%) were called active. This list was built around the results that the source calls inconclusive (neither active nor inactive); the mix of calls is not that of the screen. The call rests on the fitted dose curve; in most records, active means well fitted inhibition curve with a large enough effect; inconclusive means small, poorly fitted or top-dose-only effect; inactive means no such curve, though single readings can be large or run the other way. Potencies of inconclusive entries are doubtful fits and often do not repeat.
# Molecular target: Lysine-specific demethylase 5B (Homo sapiens) (UniProt Q9UGL1)
# Sequence of UniProt Q9UGL1 (Q9UGL1 whole entry, looked up): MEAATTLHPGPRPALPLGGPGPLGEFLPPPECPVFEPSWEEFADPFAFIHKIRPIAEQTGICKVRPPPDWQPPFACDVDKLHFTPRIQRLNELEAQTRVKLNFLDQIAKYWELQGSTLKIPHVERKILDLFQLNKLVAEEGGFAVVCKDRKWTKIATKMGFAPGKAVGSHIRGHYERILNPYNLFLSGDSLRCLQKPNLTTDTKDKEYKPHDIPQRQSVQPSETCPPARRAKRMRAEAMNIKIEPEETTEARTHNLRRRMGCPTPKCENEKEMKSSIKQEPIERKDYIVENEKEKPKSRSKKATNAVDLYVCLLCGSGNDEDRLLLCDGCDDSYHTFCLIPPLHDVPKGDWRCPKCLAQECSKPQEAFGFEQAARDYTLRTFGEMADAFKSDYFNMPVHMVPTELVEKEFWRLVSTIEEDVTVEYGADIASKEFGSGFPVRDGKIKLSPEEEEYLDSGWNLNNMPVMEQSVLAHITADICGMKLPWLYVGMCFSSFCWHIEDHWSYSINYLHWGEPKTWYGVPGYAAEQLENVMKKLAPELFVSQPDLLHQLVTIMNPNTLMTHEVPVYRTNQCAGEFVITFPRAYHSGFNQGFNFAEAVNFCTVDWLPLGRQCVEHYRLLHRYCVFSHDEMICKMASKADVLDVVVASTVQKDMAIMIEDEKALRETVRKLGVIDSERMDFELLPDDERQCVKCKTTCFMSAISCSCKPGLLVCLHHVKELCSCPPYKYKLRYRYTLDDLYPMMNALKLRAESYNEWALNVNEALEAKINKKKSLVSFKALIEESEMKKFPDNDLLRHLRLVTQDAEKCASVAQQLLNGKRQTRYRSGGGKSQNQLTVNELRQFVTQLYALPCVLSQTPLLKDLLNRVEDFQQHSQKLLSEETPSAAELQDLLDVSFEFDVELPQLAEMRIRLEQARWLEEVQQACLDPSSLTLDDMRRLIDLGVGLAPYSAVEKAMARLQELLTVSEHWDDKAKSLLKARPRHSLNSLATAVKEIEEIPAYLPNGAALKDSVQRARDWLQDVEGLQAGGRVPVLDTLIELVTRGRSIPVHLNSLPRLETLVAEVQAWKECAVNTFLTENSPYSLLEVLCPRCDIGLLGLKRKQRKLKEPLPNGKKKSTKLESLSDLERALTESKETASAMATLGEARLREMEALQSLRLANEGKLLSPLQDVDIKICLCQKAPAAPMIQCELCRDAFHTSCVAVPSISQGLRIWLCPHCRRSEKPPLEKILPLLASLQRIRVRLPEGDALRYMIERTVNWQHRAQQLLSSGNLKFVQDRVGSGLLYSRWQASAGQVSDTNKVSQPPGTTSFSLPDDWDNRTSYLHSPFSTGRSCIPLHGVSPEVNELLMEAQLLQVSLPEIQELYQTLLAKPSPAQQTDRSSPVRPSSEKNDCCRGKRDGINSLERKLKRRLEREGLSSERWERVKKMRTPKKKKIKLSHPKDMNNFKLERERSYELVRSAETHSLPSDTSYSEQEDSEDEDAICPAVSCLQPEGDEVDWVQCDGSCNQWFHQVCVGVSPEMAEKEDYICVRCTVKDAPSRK
# Experiment: Primary screen for KDM5B Histone Demethylases FDH-coupled qHTS; further: nearly all actives have a fitted effect of over 70% in size; on activity change, negative = inhibition: 0% is about no effect
# Conditions: FDH-coupled NADH fluorescence (FDH is formaldehyde dehydrogenase); activity change, negative = inhibition: at 57.7 µM (top of the series) unless noted
# Outline: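 Inhibition is measured as reduced NADH fluorescence generation from FDH coupling to formaldehyde release. Truncated KDM5BΔAP at 200 nM final acts on H3K4me3 peptide (12.5 µM in substrate mix) in pH 7.5 HEPES buffer with Tween-20, 30 min, room temperature.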
# Potency means the concentration at half of the fitted maximal effect; tags describe the fitted curve by direction and shape.
SMILES,Potency,"activity change, negative = inhibition"
O=C(O)CCNC(=O)C(F)(F)C(F)(F)C(F)(F)C(F)(F)C(F)(F)C(F)(F)F,"inconclusive: 10 µM [inhibitor, partial curve, poor fit]",
COCCN1C(=O)CS(=O)(=O)C12CCN(C(=O)c1ccc(Cl)cc1)CC2,,inactive: 18.2%
COc1cc(OC)c(OC)cc1CNC(=O)c1cc(Cl)ccc1O,,inactive: 10.5%
CCN(CC)c1ccc(/C=N/NS(=O)(=O)c2ccccc2)cc1,,inactive: 0.208%
COc1ccc2[nH]c3c(c2c1)CCNC31CCN(C(=O)c2ccc(OC)nc2OC)CC1,"inconclusive: 31.6 µM [inhibitor, partial curve, poor fit]",
Oc1ccc(/C=C/c2nc(-c3ccccc3O)n(-c3ccccc3)n2)c(O)c1,"inconclusive: 35.5 µM [inhibitor, partial curve, poor fit]",
CSCC(=O)N[C@H]1CCN2C(=O)c3cc(-c4ccc5c(c4)OCO5)ccc3NC(=O)[C@H]12,"inconclusive: 28.2 µM [inhibitor, single point]",
O=C(Nc1cc(Cl)cc(Cl)c1)C1CC(=O)N(C2CCCCC2)C1 (stereo not given),,inactive: 4.16%
CCN1c2cc(C(=O)Nc3cccc(SC)c3)ccc2C(=O)N2CCCCCC21 (stereo not given),"inconclusive: 35.5 µM [inhibitor, partial curve, poor fit]",
O/N=C1\CCCc2c1[nH]c1ccc(OCc3ccccc3)cc21,"inconclusive: 2 µM [inhibitor, full curve, poor fit]",
C=CCNCc1ccc(-c2ccc(C(=O)OC)cc2)o1,"inconclusive: 28.2 µM [inhibitor, partial curve, poor fit]",
CN(C)c1ccc(C(=O)OCc2nc(N)c3ccccc3n2)cc1,"inconclusive: 35.5 µM [inhibitor, single point]",
N#C/C(=C/c1ccc(Cl)cc1)C(=O)OCC(=O)N1CCCCC1,,inactive: -5.76%
O=C(COc1ccc(Cl)cc1)NCCc1csc(-c2cccnc2)n1,,inactive: 12.2%
CCCn1c(C)cnc1CC1CCCN(C(=O)c2ccc(OC)cc2)C1 (stereo not given),,inactive: -27.8%
Cc1ccc(CN2CCC(CNC(=O)c3c(C)oc4ncnc(N5CCOCC5)c34)C2)cc1 (stereo not given),,inactive: -9.12%
CC(C)c1nnc2ccc(N3CCN(C(C)C)CC3)nn12,"inconclusive: 31.6 µM [inhibitor, partial curve]",
COc1ccc(-n2c(=O)c3c(n2Cc2ccccc2)CN(Cc2ccc(F)cc2)CC3)cc1,,inactive: -15%
CCCCNC(=O)C(CC)Sc1nnc(-c2ccc(F)cc2)c(-c2ccc(F)cc2)n1 (stereo not given),"inconclusive: 22.4 µM [inhibitor, partial curve, poor fit]",
Cc1ccc(-c2cn3c(n2)N(S(C)(=O)=O)CCC3)cc1,"inconclusive: 31.6 µM [inhibitor, single point]",
CCCCCNC(=O)c1cc2c(=O)n3ccccc3nc2n1C,"inconclusive: 3.16 µM [inhibitor, full curve, poor fit]",
CCOC(=O)c1cccc(NS(=O)(=O)c2cc(-c3cnc(C)o3)ccc2OC)c1,"inconclusive: 15.8 µM [inhibitor, partial curve, poor fit]",
Cc1ccccc1C(=O)NC1(C(F)(F)F)N=C(c2ccccc2)N(Cc2ccco2)C1=O (stereo not given),,inactive: 16.2%
Clc1cccc(-n2ncc3c(NCCc4ccccc4)ncnc32)c1,"inconclusive: 31.6 µM [inhibitor, single point] and inconclusive: 28.2 µM [inhibitor, single point]",

SMILES,Potency,"activity change, negative = inhibition"
Cc1n[nH]c(C)c1C(N)C(=O)NCCN1CCCC1 (stereo not given),"inconclusive: 28.2 µM [inhibitor, single point]",
O=C(NCc1cccc(F)c1)c1csc(N2CCN(c3ccc(Cl)cc3)CC2)n1,"inconclusive: 28.2 µM [inhibitor, single point]",
CC1(C)Cc2c(sc3c2c2nc(Cc4ccccc4)nn2c(=O)n3CC(=O)N2CCCCC2)CO1,,inactive: 11.1%
COc1ccc(-c2cc3ccc(OCC(=O)NCCN(C)C)cc3oc2=O)cc1OC,,inactive: -2.7%
COc1ccc(-c2cc(C(=O)OCC(=O)NC3CC3)c3ccccc3n2)cc1,"inconclusive: 28.2 µM [inhibitor, partial curve, poor fit]",
COc1cccc(C2CC(=O)Nc3nc(N)sc32)c1OC(C)C (stereo not given),"inconclusive: 15.8 µM [inhibitor, partial curve, poor fit]",
O=C(Nc1ccccc1C(=O)OCc1cc(=O)n2c3c(sc2n1)CCCC3)c1ccccc1,"inconclusive: 31.6 µM [inhibitor, partial curve, poor fit]",
O=C(Nc1cnc(-c2cccc(Cl)c2)nc1)c1cc(F)cc(F)c1,active: 25.1 µM,
Cc1ccc(OCCCCCCN2CCNCC2)c(Br)c1,"inconclusive: 39.8 µM [inhibitor, single point]",
CCC[C@H]1C[C@H]1C(=O)N1CCC2(CCC(=O)N(CC(N)=O)C2)CC1,,inactive: -5.17%
Cc1ccc(S(=O)(=O)N2C[C@@H](F)C[C@H]2C(=O)N2CCCCC2)c(C)c1,,inactive: 1.03%
Cc1noc(-c2cn(C3CCN(C(=O)c4ccco4)CC3)nn2)n1,"inconclusive: 5.01 µM [inhibitor, single point]",
O=C1NC(C(=O)NC2CCN(Cc3ccccc3)CC2)Cn2cccc21 (stereo not given),,inactive: -10.6%
O=C1C(Cl)=C(NS(=O)(=O)c2ccc([N+](=O)[O-])cc2)C(=O)c2ccccc21,"inconclusive: 11.2 µM [inhibitor, partial curve, poor fit]",
Cc1ccc(C)c(CN2CC[C@@H]3CN(S(C)(=O)=O)[C@@H]3C2)c1,"inconclusive: 20 µM [inhibitor, partial curve, poor fit]",
Oc1ccc(-c2nc(-c3ccc(Br)cc3)no2)cc1,,inactive: -19.5%
Cc1ccsc1C(=O)NC1CCN(c2cc(-c3ccccc3)[nH]n2)C1 (stereo not given),"inconclusive: 11.2 µM [inhibitor, partial curve, poor fit]",
CCc1cc(N2CCOC(c3ccc4cc(OC)ccc4c3)C2)nc(C)n1 (stereo not given),"inconclusive: 25.1 µM [inhibitor, partial curve]",
O=C(NCCc1ccc(Cl)cc1)c1nc(-c2ccsc2)c2ccccn12,active: 22.4 µM,
O=C1Nc2ccccc2OCC12CCN(Cc1cccs1)CC2,,inactive: -17.7% [at 86.2 µM]
NCc1ccc(-c2ccccn2)cc1,,inactive: -20.5% [at 230 µM]
CC(C)CC(=O)NN,,inactive: 11.5%
CCc1cccc(NC(=O)c2cc3c(=O)[nH]c4ccccc4c3n2C)c1,"inconclusive: 15.8 µM [inhibitor, partial curve, poor fit]",
Cc1ccc(C)c(CSC2=NC(C)(C)Nc3ccccc32)c1,"inconclusive: 35.5 µM [inhibitor, partial curve, poor fit] and inconclusive: 31.6 µM [inhibitor, partial curve, poor fit]",

SMILES,Potency,"activity change, negative = inhibition"
CCCCNC(=O)N1CCc2c(c3cc(F)ccc3n2C)C1,"inconclusive: 17.8 µM [inhibitor, partial curve, poor fit]",
Cn1cc2c3c(cccc31)CN(C(=O)CC(C)(C)C)CC2,active: 31.6 µM,
COc1ccc(C(=O)N2CCC3(C2)C(=NC2CCCC2)NC(=O)N3c2cccc(OC)c2)cc1 (stereo not given),,inactive: 6.54% [at 115 µM]
O=C1NCc2ccccc2CC12CCCN2CC1CC=CCC1 (stereo not given),,inactive: 5.33% [at 149 µM]
Cc1ccc(C(=O)N2CCCCCCNC(=O)[C@@H]3C[C@@H](C(=O)N4CCc5ccccc5C4)C[C@@H]32)s1,,inactive: -3.85%
CC(=O)N1CCc2c(sc3nc(SCC(N)=O)n(-c4ccc(F)c(Cl)c4)c(=O)c23)C1,"inconclusive: 31.6 µM [inhibitor, partial curve, poor fit]",
Cc1ccc(CN2CCSc3ccc(C(=O)Nc4cc(C)cc(C)c4)cc32)cc1,"inconclusive: 15.8 µM [inhibitor, partial curve, poor fit]",
CNC(=S)NNC(=O)c1ccc(Br)s1,,inactive: 12.8%
CCOCCNc1ncnc2c1CN(C1CCNC1)C(=O)CN2C (stereo not given),"inconclusive: 56.2 µM [inhibitor, partial curve, poor fit]",
CCOc1cccc(C(N)=S)c1,,inactive: 8.68%
COCc1ccc2c(c1)c(OC(C)(C)C(=O)Nc1ccccn1)nn2Cc1ccccc1,"inconclusive: 39.8 µM [inhibitor, single point]",
CN(Cc1ccccc1)Cc1cn([C@H]2CO[C@H]3[C@@H]2OC[C@@H]3NC(=O)NCc2ccccc2)nn1,,inactive: -14.1%
NS(=O)(=O)c1cccc(C(=O)O)c1,,inactive: 13.3%
CCN1CCN(c2oc(-c3ccc(F)cc3)nc2C#N)CC1,"inconclusive: 3.55 µM [inhibitor, full curve, poor fit]",
Cc1ccc2c(n1)sc1c(=O)n(-c3cccc(C(F)(F)F)c3)nnc12,"inconclusive: 1.26 µM [inhibitor, full curve, poor fit]",
O=C(Cc1ccc(Cl)cc1)NC1CCN(c2cc(-c3cccs3)[nH]n2)C1 (stereo not given),active: 8.91 µM,
Cc1cc(C[C@@H]2COC[C@@H]2NC(=O)CCc2ccc(=O)[nH]n2)on1,,inactive: -6.02%
CCCNc1c(NC(=O)Nc2ccc(F)cc2)c(=O)oc2ccccc12,,inactive: -1.39%
Cc1ccc(Cl)cc1NC(=O)CCCn1c(=O)c2cccn2c2ccccc21,"inconclusive: 15.8 µM [inhibitor, partial curve, poor fit]",
Cc1noc(-c2cccc(OC3CN(C(=O)NC4CCCCC4)C3)c2)n1,"inconclusive: 5.01 µM [inhibitor, single point]",
COc1ccc2c(c1)c1c(c(=O)n(Cc3ccccc3)c(=O)n1CC(=O)Nc1cc(C)cc(C)c1)n2C,"inconclusive: 22.4 µM [inhibitor, single point]",
CCc1ccc(NC(=O)Cn2c(N3CCc4ccccc4C3)nc(C)cc2=O)cc1,"inconclusive: 14.1 µM [inhibitor, partial curve]",
